Our source for the survival values is PubChem BioAssay AID463173 (ICCB-Longwood Screening Facility, Harvard Medical School, 2010).

Molecules are shown by their SMILES. Hit rate of the full screen: of about 52,000 compounds, about 4,300 (8.3%) were called active. No stated cut-off is given here; in the data, active means survival mostly below about 52% (no sharp cut-off); inactive means mostly above about 56%. The list shows a part of the results.

This assay has as its system DeltatarO mutant. Put plainly: S. aureus survival, RN4220 and DeltatarO strains – OD600, teichoic acid synthesis inhibitors, primary screen (AID 463173). To be noted: S. aureus RN4220 wild type/DeltatarO growth, OD600, 18 h, stronger effect = lower value, screened at 18.75 µg/mL (by protocol).
On to `COc1cccc(N2CCN(C(=O)c3cnc4c(C)cccn4c3=O)CC2)c1`, for which the survival is inactive: 84%.

With `CC(C)Oc1ccc(CNC(=O)C2CCN(C(=O)N3CCOc4ccc(Cl)cc43)CC2)cc1`, the survival is inactive: 48%.

Consider `CCC(c1nnnn1C(C)(C)CC)N(Cc1cc2ccc(C)cc2[nH]c1=O)C1CCCC1` (centres undefined), for which the survival is inactive: 92%.

As for `Cc1ccccc1-c1nc(NC(=O)CSc2ncnc3sc4c(c23)CCCC4)ns1`, the survival is inactive: 92%.

Regarding `Cc1cccc(NC(=O)CSc2nc3ccccc3c3nc(CCn4cncc4C)nn23)c1`, the survival is inactive: 78%.

Consider `CC(C)c1ccc(NC(=O)c2cc3c(=O)oc4ccccc4c3s2)cc1`, for which the survival was inactive: 46%.

Turning to `CCOc1ccc(CCNC(=O)c2cc3c(=O)n(C)c4ccccc4c3s2)cc1OCC`, the survival is inactive: 56%.

For the compound `COc1ccccc1NC(=O)c1sc2cccc(Cl)c2c1Cl`, the survival is inactive: 64%.

In the case of `O=C(c1cccnc1)N1CCC(Cc2ccccc2)CC1`, the survival was inactive: 104%.

As to `CCCC12CN3CC(C)(CN(C1)C3c1ccc(CC)cc1)C2=O` (centres undefined), the survival is inactive: 87%.

As for `CCc1ccc(OCC(=O)NCC(c2ccc(Cl)cc2)N2CCOCC2)cc1` (centres undefined), the survival was inactive: 93%.

In the case of `O=S(=O)(Nc1ccc(-c2ccc(N3CCCCCC3)nn2)cc1)c1ccc(C(F)(F)F)cc1`, the survival was inactive: 101%.

Turning to `Cc1nn(-c2ccccc2)c2c1cc1c(=O)[nH]c(=O)nc-1n2-c1cccc(C(F)(F)F)c1`, the survival was inactive: 121%.

In the case of `Cc1ccc(-n2nc3c(=O)n(CCCC(=O)NCc4ccc(F)cc4)nc(C)c3c2C)cc1`, the survival is inactive: 78%.

As for `Cc1cc(C)c(S(=O)(=O)NCC(c2ccco2)N2CCN(c3ccccc3)CC2)c(C)c1` (centres undefined), the survival is inactive: 77%.

With `O=C(CN1CCN(Cc2ccc(F)cc2)C1=O)NCc1ccccc1`, the survival was inactive: 107%.

Take `Cc1ccccc1SCC(=O)O`: the survival is inactive: 72%.

On to `Cc1ccc2c(c1)-c1onc(C(=O)N3CCN(c4cccc(C)c4C)CC3)c1CO2`, for which the survival was inactive: 68%.

With `CCCCN(CCCC)C(=O)c1cc2c(=O)n3ccccc3nc2s1`, the survival was active: 39%.

For `CCCC1C2CN(C(C)C)CC=C2C(C#N)=C(N)C1(C#N)C#N` (centres undefined), the survival is inactive: 79%.

`Cc1cccc(N2CCN(S(=O)(=O)c3ccc(F)c(C(=O)Nc4cccc(Cl)c4C)c3)CC2C)c1` (centres undefined): the survival is inactive: 85%.

`CCNC(=O)c1c(NC(=O)c2cc(=O)c3ccc(C)c(C)c3o2)sc2c1CCCC2`: the survival was inactive: 66%.

In the case of `CC1CCCCN1S(=O)(=O)c1ccc(NC(=O)C2COc3ccccc3O2)cc1` (centres undefined), the survival is inactive: 97%.

In the case of `O=C(NC1CC2CCC(C1)N2C(=O)NC1CCCCC1)NC12CC3CC(CC(C3)C1)C2` (centres undefined), the survival was inactive: 75%.

As to `COc1ccccc1C(OC(=O)c1ccco1)C(=O)NCC1CCCO1` (centres undefined), the survival is inactive: 85%.

Consider `Cc1ccccc1CSc1nc(-c2ccccc2)nc2c1Cc1c(CO)cnc(C)c1O2`, for which the survival was inactive: 106%.

On to `COc1cccc(C(=O)NCC(c2ccc(N(C)C)cc2)N2CCOCC2)c1OC` (centres undefined), for which the survival is inactive: 124%.

Regarding `CC[N+](C)(C)Cc1ccco1`, the survival is inactive: 80%.

In the case of `Cc1cccc(OCC(=O)N(Cc2cccc(Cl)c2)Cc2ccco2)c1C`, the survival was inactive: 69%.

`CC(C)S(=O)(=O)c1oc(-c2ccc(F)cc2)nc1S(=O)(=O)c1ccc(F)cc1`: the survival is active: 22%.

As to `COc1ccc2cc(-c3cn4c(n3)sc3cc(F)ccc34)c(=O)oc2c1`, the survival is inactive: 77%.

Turning to `Cc1ccc(S(=O)(=O)c2nc(-c3ccccc3)oc2N2CCCCCC2)cc1`, the survival was active: 22%.

Turning to `Cc1ccc(S(=O)(=O)N2CC=C(c3ccc(F)cc3)CC2)cc1`, the survival was inactive: 87%.

As for `Cc1ccc(C)c(N2CCN(C(=O)c3cc(S(=O)(=O)N4CCCCC4)cn3C)CC2)c1`, the survival was inactive: 71%.

Consider `COc1ccc2[nH]cc(CCNC(=O)Nc3ccc(F)cc3)c2c1`, for which the survival is inactive: 87%.

Turning to `O=C(c1ccc(CSc2nc3ccncc3n2Cc2ccccc2F)cc1)N1CCCCCC1`, the survival was inactive: 69%.

For `CCCC(=O)Nc1nnc(SCc2cc(=O)c3cc(C)ccc3[nH]2)s1`, the survival is inactive: 75%.

Take `CC(C)CCNC(=O)N1CCN(S(=O)(=O)c2ccc3c(ccn3C)c2)CC1`: the survival is inactive: 89%.

In the case of `CCCCNC(=O)CCn1c(=O)c2ccccc2n(Cc2cc(C)ccc2C)c1=O`, the survival was inactive: 83%.

`COc1cccc(C2=NN(C(C)=O)C(c3cn(-c4ccccc4)nc3-c3cccs3)C2)c1` (centres undefined): the survival was inactive: 170%.

With `CCOc1ccc(CCNC(=O)CCc2cn(Cc3ccc(C)cc3)c3ccccc23)cc1`, the survival was inactive: 69%.

For the compound `CCC(=O)Nc1ccccc1-c1nc2ccccc2n(C(CC)C(=O)Nc2cccc(C(C)=O)c2)c1=O` (centres undefined), the survival is inactive: 91%.

In the case of `CCCCN(CC)CCCn1cnc2c([nH]c3ccc(Cl)cc32)c1=O`, the survival was inactive: 110%.

For `CC(C)(C)C1CCc2nc(NC(=O)COc3ccc(F)cc3)sc2C1` (centres undefined), the survival was inactive: 115%.

With `O=C(N/N=C/c1ccco1)C1CN(S(=O)(=O)c2ccccc2)CCN1S(=O)(=O)c1ccccc1` (centres undefined), the survival is active: 1%.

In the case of `CC(=O)Nc1ccc(-n2cc3c(c2-c2ccc(C)cc2)c(=O)n(C)c(=O)n3C)cc1`, the survival was inactive: 92%.

With `CC(C)(C)c1ccc(OCCSc2nc(-c3cccs3)nc3cc(=O)[nH]n23)cc1`, the survival is inactive: 78%.

`Cc1oc(-c2ccc(C(=O)Nc3ccc(F)cc3F)cc2)nc1COc1ccccc1`: the survival is inactive: 89%.

On to `O=C(Cn1ncc2c3ccccc3n(Cc3ccc(Cl)cc3)c2c1=O)NCCCc1ccccc1`, for which the survival is inactive: 93%.

With `COc1ccc(Nc2oc(-c3ccc(COc4ccc(OC)cc4)o3)nc2C#N)cc1`, the survival is inactive: 64%.

On to `Cc1csc(N(C)C(=O)CSc2nnc(COc3cccc4ccccc34)o2)n1`, for which the survival is inactive: 56%.

On to `CC(C)c1ccc(Nc2cc(C(=O)NCCc3ccccc3)c3ccccc3n2)cc1`, for which the survival is inactive: 81%.

Consider `CCC12C=CCN3CCC4(c5ccc(OC)cc5NC4C(O)(C(=O)OC)C1OC(C)=O)C32` (centres undefined), for which the survival is inactive: 88%.

In the case of `NCC1OCCc2ccccc21` (centres undefined), the survival is inactive: 84%.

Take `CCc1ccccc1N1CC(c2nc3ccccc3n2CC(C)C)CC1=O` (centres undefined): the survival is inactive: 78%.

In the case of `CCC(C)NC(=O)C1CCN(C(=O)c2cc3sccc3n2Cc2ccc(Cl)cc2)CC1` (centres undefined), the survival was active: 45%.

On to `Cc1ccc(C)c(S(=O)(=O)c2nnn3c2nc(N2CCCC2)c2sccc23)c1`, for which the survival was inactive: 86%.

With `CCCCN(CC)c1ncnc2c1sc1nc(N3CCOCC3)c3c(c12)CCCC3`, the survival was active: 35%.

For the compound `Cc1cccn2c(=O)c3cc(C(=O)NCCc4ccc(S(N)(=O)=O)cc4)n(C)c3nc12`, the survival is inactive: 71%.

Take `COc1ccc(OC)c(C2C(C(N)=O)=C(C)Nc3nc(-c4cccc(Cl)c4)nn32)c1` (centres undefined): the survival is inactive: 113%.

In the case of `Cc1ccc(-c2ccc(C#N)c(=O)n2CC(=O)N(C)C)cc1`, the survival was inactive: 80%.

For `CCC(C)NC(=S)N1CCN(C)CC1` (centres undefined), the survival is inactive: 67%.

With `COc1ccc(CCNC(=O)CCn2c(=O)c3ccccc3n(CC(=O)Nc3cccc(C)c3)c2=O)cc1OC`, the survival is inactive: 79%.

Turning to `CC(=O)c1ccc(NC(=O)Cn2c(-n3nc(C)cc3C)nc(C)cc2=O)cc1`, the survival was inactive: 75%.

Take `COc1cc(OC)cc(-c2nnc(SCC(=O)N3CCC(C)CC3)o2)c1`: the survival is inactive: 100%.

With `Cc1ccc2c(c1)cc1c(=O)n(CC(=O)NCc3ccco3)nc(C)n12`, the survival was inactive: 84%.

For `O=C1C(c2ccccc2)=C(c2ccccc2)C(=O)N1O`, the survival was inactive: 107%.

As for `Cn1cc(C(=O)O)c(=O)c2cc(S(=O)(=O)N3CCCCC3)ccc21`, the survival was inactive: 81%.

As for `Cc1ccc(CN2C(=O)c3ccccc3S(=O)(=O)c3ccc(C(=O)OCC4CCCO4)cc32)cc1` (centres undefined), the survival is inactive: 91%.

As to `CCN(C(=O)c1cc(S(=O)(=O)N2CCOCC2)cn1C)c1ccc(OC)cc1`, the survival was inactive: 83%.

Consider `CCOc1ccc(C(C)C)cc1S(=O)(=O)Nc1cccc(-c2ccc(N3CCOCC3)nn2)c1`, for which the survival is inactive: 87%.

As to `CCCC(=O)Oc1c(Sc2ccc(Cl)cc2)c(C)nn1-c1ccccc1`, the survival was active: 23%.

In the case of `CCOc1nc(NC(=O)NS(=O)(=O)Oc2ccc(Cl)cc2)nc(-c2ccccc2)n1`, the survival was inactive: 71%.

For `Cc1ccc2c(c1)c1c(c(=O)n(-c3ccccc3C)c(=O)n1Cc1ccccc1F)n2C`, the survival is inactive: 73%.

Turning to `COc1ccc(NC(=O)CCc2c(C)nc3c(-c4ccccc4)c(C)nn3c2C)cc1Cl`, the survival is inactive: 85%.

For the compound `Cc1ccc(Cl)cc1NC(=O)Cn1c(=O)oc2cc(S(=O)(=O)N3CCCCCC3)ccc21`, the survival is inactive: 67%.

Consider `Cn1c(C(=O)NCc2ccc(Cl)cc2)cc2c(=O)n(C)c3ccccc3c21`, for which the survival was inactive: 103%.

Regarding `COc1ccc(-c2noc(C(C)NC(=O)c3ccco3)n2)cc1` (centres undefined), the survival was inactive: 105%.

Regarding `Cc1ccc(NC(=O)c2ccc(=O)n(CC(=O)Nc3cc(C)cc(C)c3)n2)cc1`, the survival was inactive: 80%.

`Fc1ccc(-n2ncc3c(Nc4ccc(Oc5ccccc5)cc4)ncnc32)cc1`: the survival is inactive: 79%.

`Cc1cccc2c1-c1sc(C(=O)NCCCN3CCN(c4cccc(Cl)c4)CC3)cc1CO2`: the survival is inactive: 98%.

On to `COc1cccc(C(=O)NC(c2ccc(Cl)cc2)c2cc(Cl)c3cccnc3c2O)c1` (centres undefined), for which the survival was inactive: 89%.

`FC(F)(F)c1ccc(C2=Nc3ccccc3NC(c3cccs3)=N2)cc1`: the survival is inactive: 101%.

In the case of `Cc1nc(NC(=O)CSc2nc3cccnc3n2C2CCCCC2)sc1C`, the survival was inactive: 74%.

`Cc1ccc(-n2nc(C)c3c(C)cc(=O)n(CC(=O)NCc4ccc(OC(C)C)cc4)c32)cc1`: the survival is inactive: 98%.

Consider `O=C(COc1ccc(F)cc1)Nc1cccc(OCc2cc(=O)n3ccccc3n2)c1`, for which the survival is inactive: 102%.

In the case of `COc1ccc(Nc2ncc(C(=O)Nc3cc(C)ccc3OC)c3ccccc23)cc1`, the survival is inactive: 50%.

In the case of `CC(=O)Nc1ccc(NC(=O)CSc2nnc3c4cc(Br)ccc4n(C)c3n2)cc1`, the survival is inactive: 75%.

As for `O=C(O)C1C2C=CC3(CN(C(c4ccccc4)c4ccccc4)C(=O)C13)O2` (centres undefined), the survival is inactive: 100%.
